We go through 1 substance from patent publication US20230295281A1.

Entries with a single value are a further part of the results.

The target of the assay is oxidized LDL (oxidized low-density lipoprotein) (UniProt P04114). Briefly: ELISA on coated oxLDL, isotype-specific secondary antibodies.

Turning to “Pentaglobin (human polyclonal immunoglobulin infusion preparation enriched for IgM and IgA)”, the share of oxLDL-binding antibodies by isotype (ratio of OD450 of the isotype to all isotypes) (IgA isotype) turned out to be 19%, the share of oxLDL-binding antibodies by isotype (ratio of OD450 of the isotype to all isotypes) (IgG isotype) came out at 45% and the share of oxLDL-binding antibodies by isotype (ratio of OD450 of the isotype to all isotypes) (IgM isotype) worked out at 35%.
